Measurements taken from PMC5979959, “Structural modelling of the DNAJB6 oligomeric chaperone shows a peptide-binding cleft lined with conserved S/T-residues at the dimer interface” (Scientific Reports, 2018).

Target: T1, human DNAJB6, cytosolic isoform B (human, UniProt O75190-2 1-241)
T1 construct: DNAJB6, human, cytosolic isoform B (UniProt O75190-2); monomeric mass 26.9 kDa; Polydisperse homo-oligomer with a varying number of subunits (34 to 55 by SEC-SAXS, about 20 in one GraFix fraction); For the mixed isotope cross-linking a 15N-labelled preparation of the same protein was mixed 1:1 with the unlabelled one; also called Mrj; DNAJB6 oligomers
Experiment: cross-linking; DNAJB6 (about 60 μM) with Aβ42 at a 1:1 molar ratio, 3 mM BS3 for 15 min, in-solution digestion, LC-MSMS, crosslinks found with MassAI
Settings: both partners purified

B1: Aβ42 peptide from human APP (Amyloid Precursor Protein) (peptide)
peptide: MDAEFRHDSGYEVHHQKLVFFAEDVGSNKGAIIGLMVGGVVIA
notes: extra start methionine that was added during recombinant expression; Aβ42 peptide of human amyloid precursor protein (APP). numbers count on: the Aβ42 peptide (D1 is the first residue, K16 and K28 the two lysines); The searches were made with and without the extra start methionine, so it may be partly removed
B1: binds.
